# In the supplement of paper PMC4604168 (melanoma cell lines):
# The other results are listed elsewhere or left out. Many values rest on one well or one pass, so single values are uncertain.
# Assays:
# Assay in all cases: cell count relative to DMSO control; melanoma cells; higher = more viable cells
# Conditions in all cases: library dose: low library concentration; 72 h
# MZ2-MEL = tested on: MZ2-MEL
# MeWo = tested on: MeWo
# RPMI7951 = tested on: RPMI7951
# RVH-421 = tested on: RVH-421
# SkMel28 = tested on: SkMel28
# SkMel2 = tested on: SkMel2
# SkMel30 = tested on: SkMel30
# SkMel5 = tested on: SkMel5
# UACC257 = tested on: UACC257
# UACC62 = tested on: UACC62
# WM115 = tested on: WM115
# WM1716 = tested on: WM1716
# WM1745 = tested on: WM1745
# WM3526 = tested on: WM3526
# WM3619 = tested on: WM3619
# WM451Lu = tested on: WM451Lu
# 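Also: cell number obtained by counting DAPI-stained nuclei in high-throughput microscope images with image analysis software, screen run in 1,536-well plates.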
SMILES,cell count (MZ2-MEL) [%],cell count (MeWo) [%],cell count (RPMI7951) [%],cell count (RVH-421) [%],cell count (SkMel28) [%],cell count (SkMel2) [%],cell count (SkMel30) [%],cell count (SkMel5) [%],cell count (UACC257) [%],cell count (UACC62) [%],cell count (WM115) [%],cell count (WM1716) [%],cell count (WM1745) [%],cell count (WM3526) [%],cell count (WM3619) [%],cell count (WM451Lu) [%]
"CCCCCCCCc1ccc(CCC(N)(CO)CO)cc1 [fingolimod] + O=C(Nc1cccc(Cl)c1)Nc1ncc(CCNc2ncnc3ccsc23)s1 [SNS314] (first compound 2 µM, partner dose 0.0008 µM)",103,105,88.5,122,104,105,117,96.2,118,86.3,76.4,88.1,68.6,95.1,86.8,88.6
"NC(=O)c1ccc(N(C(N)=O)c2c(F)cccc2F)nc1-c1ccc(F)cc1F + Cc1ccc(NC(=O)c2cccc(N(C)C)c2)cc1NC(=O)c1ccc(O)cc1 [ZM336372] (first compound 0.4 µM, partner dose 2 µM)",77.3,94.5,86.7,103,74.6,102,87,100,76,85,98.5,93.5,84.5,77.7,83.3,100
"CCCCCCCCc1ccc(CCC(N)(CO)CO)cc1 [fingolimod] + Cc1cc([N+](=O)[O-])ccc1NS(=O)(=O)c1cc(Cl)ccc1Cl [FH535] (first compound 2 µM, partner dose 1 µM)",82.9,103,94,100,108,92.6,93.7,78.2,86.7,108,91.5,71.7,91.2,90,133,124
"NC(=O)c1ccc(N(C(N)=O)c2c(F)cccc2F)nc1-c1ccc(F)cc1F + O=C(CCCCCCC(=O)Nc1ccccc1)NO [vorinostat] (first compound 0.4 µM, partner dose 0.08 µM)",105,85.1,89.2,115,66,92.9,89.5,104,97,95.3,112,96.9,111,93.4,114,54.7
"Cc1ccc(NC(=O)c2cccc(N(C)C)c2)cc1NC(=O)c1ccc(O)cc1 + COc1cc2c(Oc3ccc4[nH]c(C)cc4c3F)ncnc2cc1OCCCN1CCCC1 [cediranib] (first compound 2 µM, partner dose 0.4 µM)",90.8,96.3,99.5,79.2,89.6,97.9,85.8,87.6,112,91.7,97.2,126,96.6,118,108,105
"CCCCCCCCc1ccc(CCC(N)(CO)CO)cc1 [fingolimod] + Cc1cc(N2CCOCC2)cc2[nH]c(-c3c(NC[C@@H](O)c4cccc(Cl)c4)cc[nH]c3=O)nc12 [BMS536924] (first compound 2 µM, partner dose 0.2 µM)",98.2,90.7,106,111,85.1,80.3,91.9,83.2,83.4,85.9,92.6,92.9,64.6,77.7,79.1,101
"CCCCCCCCc1ccc(CCC(N)(CO)CO)cc1 [fingolimod] + CCc1ccc(CCOc2ccc(CC3SC(=O)NC3=O)cc2)nc1 [pioglitazone] (first compound 2 µM, partner dose 2 µM)",90.6,76.4,65.8,78.3,74.7,89.5,96.3,80,92.7,66.1,81,81.3,86.8,76.3,95.2,78.2
"Cc1ccc(NC(=O)c2cccc(N(C)C)c2)cc1NC(=O)c1ccc(O)cc1 + CN(C)S(=O)(=O)c1ccc2c(c1)/C(=C/c1cc3c([nH]1)CCCC3)C(=O)N2 [SU6656] (first compound 2 µM, partner dose 0.4 µM)",95.1,93.9,103,92.1,85.2,100,59.2,105,101,101,82.1,100,86.7,87.2,90.1,97.9
"CCCCCCCCc1ccc(CCC(N)(CO)CO)cc1 [fingolimod] + COc1cc2ncnc(Nc3ccc(Oc4ccccc4)cc3)c2cc1OC [SrcI1] (first compound 2 µM, partner dose 2 µM)",94.2,89.4,78.8,98.1,74,95.1,99.5,95.4,107,82.7,94.7,91.8,62.9,87.1,89,104
"Cc1ccc(NC(=O)c2cccc(N(C)C)c2)cc1NC(=O)c1ccc(O)cc1 + Cn1cncc1[C@@](N)(c1ccc(Cl)cc1)c1ccc2c(c1)c(-c1cccc(Cl)c1)cc(=O)n2C [tipifarnib] (first compound 2 µM, partner dose 0.01 µM)",83.7,94.1,85.5,107,73.3,89.2,82.5,97.9,85.1,82.2,92.1,93.5,85.5,84.1,89.2,92.7
"NC(=O)c1ccc(N(C(N)=O)c2c(F)cccc2F)nc1-c1ccc(F)cc1F + CC(C)(C)c1cnc(CSc2cnc(NC(=O)C3CCNCC3)s2)o1 [SNS-032] (first compound 0.4 µM, partner dose 0.01 µM)",99.5,98,95.7,116,87.1,102,108,104,72.6,90.3,90,85.5,92.9,106,108,85.5
"Cc1ccc(NC(=O)c2cccc(N(C)C)c2)cc1NC(=O)c1ccc(O)cc1 + NCC(=O)Nc1ccc(-n2nc(C(F)(F)F)cc2-c2ccc3c(ccc4ccccc43)c2)cc1 [OSU03012] (first compound 2 µM, partner dose 1 µM)",63.2,47.9,78.7,80.7,80.4,71.9,40,95,88.8,76.4,84,102,75.7,59.6,95.3,70.9
"CC(C)(C)c1cnc(CSc2cnc(NC(=O)C3CCNCC3)s2)o1 + NCC(=O)Nc1ccc(-n2nc(C(F)(F)F)cc2-c2ccc3c(ccc4ccccc43)c2)cc1 [OSU03012] (first compound 0.01 µM, partner dose 1 µM)",105,56.5,99.5,121,81.6,85.8,64,82,104,90.5,94.1,102,84.8,65.9,89.3,77.1
"NC(=O)c1ccc(N(C(N)=O)c2c(F)cccc2F)nc1-c1ccc(F)cc1F + COc1ccc(-c2ccc3c(N4CCOCC4)nc(N4C[C@@H](C)O[C@@H](C)C4)nc3n2)cc1CO [KU0063794] (first compound 0.4 µM, partner dose 0.02 µM)",90.9,86.5,89.2,115,90.5,108,92.1,95.5,87.1,89.2,100,102,88.8,138,94.6,103
"CCCCCCCCc1ccc(CCC(N)(CO)CO)cc1 [fingolimod] + COC(=O)c1sccc1S(=O)(=O)Nc1ccc(Nc2ccccc2)cc1OC [GSK0660] (first compound 2 µM, partner dose 1 µM)",97.2,107,74,102,93.5,91.9,87,102,103,86.2,86,95.7,82.9,85.8,88.4,97.4
"CCCCCCCCc1ccc(CCC(N)(CO)CO)cc1 [fingolimod] + CN(NC(=O)CC(=O)NN(C)C(=S)c1ccccc1)C(=S)c1ccccc1 [STA4783] (first compound 2 µM, partner dose 0.006 µM)",95,83.9,57.6,87.1,105,80.7,68.1,94.8,94.4,74.1,72.1,70.1,65.9,73.4,82.6,90.8
"NC(=O)c1ccc(N(C(N)=O)c2c(F)cccc2F)nc1-c1ccc(F)cc1F + Oc1cc(-c2nc(-c3ccccc3)[nH]c2-c2ccncc2)ccc1Cl [L779450] (first compound 0.4 µM, partner dose 0.2 µM)",82.5,99.6,107,126,67.7,92.1,103,98.7,66.4,67.9,86.4,101,96,87.1,91.5,103
"NC(=O)c1ccc(N(C(N)=O)c2c(F)cccc2F)nc1-c1ccc(F)cc1F + CN(C)S(=O)(=O)c1ccc2c(c1)/C(=C/c1cc3c([nH]1)CCCC3)C(=O)N2 [SU6656] (first compound 0.4 µM, partner dose 0.4 µM)",98.1,83.4,82.4,102,86.2,95.1,105,80.4,87.9,86,73.6,116,95.2,91.3,104,89.3
"NC(=O)c1ccc(N(C(N)=O)c2c(F)cccc2F)nc1-c1ccc(F)cc1F + N#Cc1c(O)c2c(-c3ccc(-c4ccccc4O)cc3)csc2[nH]c1=O [A769662] (first compound 0.4 µM, partner dose 2 µM)",107,99.9,103,104,101,101,96,113,107,102,98,101,94.2,105,112,88
"CCCCCCCCc1ccc(CCC(N)(CO)CO)cc1 [fingolimod] + C[C@@H]1CCN(C(=O)CC#N)C[C@@H]1N(C)c1ncnc2[nH]ccc12 [CP690550] (first compound 2 µM, partner dose 1 µM)",113,96.1,79.7,79.9,76.6,98.4,95.3,95.4,82.5,84.1,90.8,74.9,78.6,85,111,96.3
